Data from the supplement of paper PMC11417369.
Some of the results follow.

Each sequence was assayed on PfHDP1 homeodomain (GST-tagged) (assay: gcPBM binding intensity (ln(normalized median fluorescence intensity)); higher = stronger DNA binding).
Outline: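 An Agilent 4 × 180k array of primer-extended double-stranded 36-bp intergenic genomic probes, with negative controls, was incubated for 1 h with GST-tagged P. falciparum DNA-binding domains expressed in E. coli. Alexa488 anti-GST antibody detected bound protein, scanned at 488 nm. Binding intensity is the highest Masliner-normalised natural-log median intensity across replicate spots of either probe orientation.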

Sequence | gcPBM binding intensity (ln)
TCTTTCTAAATCTTACAAATTACTAAAATATTTATA [CACACA_negctrl_site87] | 6.28
ATGATATACGTAAACACACAAATAAAAAAAATTTAT [CACACA_site7544] | 6.36
TATATAGCATATTTCACACACACATAATGAATATTA [CACACA_site3546] | 6.59
TTAAAAAGAAAGTTCACACACATATAGATGACGGAA [CACACA_site7268] | 6.76
TTTTTTAGTTTTTAGTGTACATAAATAAATAAATAA [XGTACX_site2843] | 6.54
TGATACTTATGATAAATACACACTTGAAATTAAGGA [CACACA_site1152] | 6.33
TTCATTAAATAGAACAAAATAATAATATAACAACAA [GTGCAC_negctrl_site116] | 6.77
TTAAAGATATACAAAAGTACTTTTTTTTTCGTCATT [XGTACX_site384] | 6.09
CCATATCTTTTTTGCACACACTACAATAAAACAAAA [CACACA_site4995] | 10.6
AATAATCATAGTTCTACACACCTATATTGCAAAAAA [CACACA_site867] | 8.22
GGTTCATATATTAACACACACATACATATTATATAT [CACACA_site2937] | 6.91
TGAGAGAGAAACGTAGTGCATAAAATCAAATTTAGA [GTGCAC_site9737] | 8.98
TTATAAAAAATTTTAGTGCATATATGATTTATATAT [GTGCAC_site9831] | 9.44
TACAAAAATAAATGTTGTACTATTATTTATTTCGAT [XGTACX_site1048] | 6.2
TAATATGTATTTACAAGTACTAACAAAATATTAAAA [XGTACX_site3379] | 6.37
TTTAAATAAAATATTACACACTTAGAAAAATATATA [CACACA_site3663] | 6.23
ACTTCAAAAATAAACTGTACGTAAAAAAAAAAAAAA [XGTACX_site795] | 6.68
TTTCTTTTTTTTTTTGTATATTAAATCTAAAAAGGA [TGCATGCA_negctrl_site431] | 6.24
TTTCGTAAAATGAAATGTACTCAAAAGTAAATATAA [XGTACX_site214] | 6.19

Sequence | gcPBM binding intensity (ln)
ACATACATACACCCACGTACGTACCGAAACACCACC [XGTACX_site1212] | 7.02
GATATAATGTGTTTGGTATTCTTGATAGATAGTTTT [CACACA_negctrl_site1711] | 6.57
ATGATGTCTTTATATTGTACATATATGAAGACGTTA [XGTACX_site7751] | 6.47
TATATTACAAAAAGTACACACATAAATAAATACATA [CACACA_site975] | 6.79
ATGCTCAAAAGATATGCATGTACAAATATATGAAAT [TGCATGCA_site592] | 8.03
TATCAAATGTATATATGTACTTATATTTTTTTTATA [XGTACX_site1501] | 6.38
AAATTAAAATAATAATTCTACAAATTAATTTATCAT [XGTACX_negctrl_site44] | 5.9
AATATATTTTCCTGCAAACACACATATAAATGTGTA [CACACA_site532] | 6.78
TTAAAAAAAAATGGCACACATTTTAATTTTATGTTT [CACACA_site5035] | 5.92
TTTTATGATAATTTTGCACACACTTAGGAAAAATTA [CACACA_site1556] | 10.4
TTTATTTAATTCATTGCATGTAATTTTTGTGTCCAC [TGCATGCA_site677] | 6.7
AGAATAAAAAGGAACACACACACACGCATATAAATA [CACACA_site7659] | 7.08
GTAATATTATAATATACACACATAGAATATAAATAT [CACACA_site6333] | 6.68
TTCAAGATTTATTATACACACATATTAATATATATA [CACACA_site573] | 6.83
AAAATACACCAACACACACACATATATATATATATT [CACACA_site4149] | 7.57
AAAAAAAAAAAAAACACACACATATCTATAATATAT [CACACA_site7481] | 6.54
TTGTGATTATATAATCGTACATAATTTTAATCACAC [XGTACX_site398] | 6.42
CAAAACAAAGTTGCCGCACACAGATACGCACCCAAG [CACACA_site3455] | 7.09
GAATATAAACATATTACACACATCTATATGTACTTT [CACACA_site8582] | 6.64

Sequence | gcPBM binding intensity (ln)
TTATTTTTTCTTTTTTTTCTTACCACAAAAATGGAT [CACACA_negctrl_site362] | 6.32
ATTTTTTCTAATGGGTGTACTGAAACGTATTTTATT [XGTACX_site6573] | 6.93
ATTTATTTATATAATACACACAAATATCTTAATGAA [CACACA_site6064] | 6.32
ATTTGTAATTATTAAACACACACAAAATATATATAA [CACACA_site8804] | 6.93
AAAAAAAAAAAAAACACACACAACACCCATACCTTA [CACACA_site3621] | 6.72
CTTTTAATATGTGTAGTGCATTTTTTTTTTTTTTTT [GTGCAC_site9727] | 8.23
GTCCTTCATCATATTTAACACACAGAGAAAAAGCGG [CACACA_site7979] | 7.13
TTTTTTTTTTTTTTGGTGCGTTTATATATAAATATA | 7.15
GGAATTATATGAAATAAACACACATATGTAATATTA [CACACA_site8586] | 6.34
AAAATCTAATATAATGCACACATAAAAAAAAAATCA [CACACA_site8871] | 10.4
TACATCGACCTATGTACATGCAAATTATTTTTATTT [TGCATGCA_site182] | 7.1
ACCTGGACAAAAATAAATAAATAAATAAATAAATGA [GTGCAC_negctrl_site238] | 6.27
ACATTAAGACACATTGCACACGTGCACCCATAGAAA [CACACA_site8029] | 10.5
TAAATACAGAAACACACACACAAATATATACATACA [CACACA_site2880] | 6.75
AATTCTTTTTTCAACACACACACACTAGAAAATATA [CACACA_site5681] | 6.98
TTTATATATTATTAATGTACAAAATTTTTATTGCAT [XGTACX_site3329] | 6.53
GATATGTGACGTTTGGTATTTTTGATGTTGGTAGGA [CACACA_negctrl_site1448] | 6.65
AAAAAAATAAAATTATATAAAATAAATTTTTATAAT [GTGCAC_negctrl_site587] | 5.77
